Measurements: the supplement of paper PMC11417369
± gives the standard deviation of the averaged measurements. The list shows a part of the results.

test system: PfAP2-G AP2 domain (GST-tagged); experiment: gcPBM binding intensity (ln(normalized median fluorescence intensity)); higher = stronger DNA binding
Procedure, shortened: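 Probes on an Agilent 4 × 180k array were primer-extended, double-stranded and 36 bp long, taken from intergenic genomic regions, with negative controls added. GST-tagged P. falciparum DNA-binding domains from E. coli, about 25 μg on average, were applied to the array for 1 h in 1× PBS containing 1% milk, 0.2 mg/ml BSA, 0.5% salmon testes DNA and 0.03% Triton X-100. Binding intensity, obtained after Alexa488 anti-GST antibody detection and a 488 nm scan, is the highest Masliner-normalised natural-log median intensity across replicate spots of either probe orientation.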

Sequence	gcPBM binding intensity (ln)
AAAAAAAAATAAAAATGTACATATATAATATTATAT [XGTACX_site71]	11.1 ± 0.56
TAATTCTTTATAATAACACACATTCATATACAATAA [CACACA_site2499]	9.9 ± 0.042
GGTATTACCTGTTTGTTATGTAGATGTTGCTAGGAT [GTGCAC_negctrl_site736]	10.02 ± 0.021
AAGAAAAACTAAAGAGTTCTGTTCATATCTCTTTGG [TGCATGCA_negctrl_site549]	9.41 ± 0.4
ATACCAATAATATACATACACACATAAAGGTTTATA [CACACA_site314]	9.955 ± 0.064
TATATCAAATTCTAAACATGCACAAAAAACTTATAA [TGCATGCA_site510]	9.94 ± 0.057
AAGGAAAAACCATTCGCACACACACCGAATATATAA [CACACA_site8403]	10.1 ± 0.14
TTTACATTTAATAAAAGTACTTATTTCATATACATA [XGTACX_site659]	11.2 ± 0.57
ACTTAAATAATACATACACACATGTACATACAGAAA [CACACA_site1595]	11.2 ± 0.62
TATTTATATAGACACACACACATATATTTATATTTT [CACACA_site7240]	10.1 ± 0.11
ATTATATATATATATAGTACTTTTTTTTTTTTTTTT [XGTACX_site8801]	11.4 ± 0.71
AAAAAAAATATATATATTAAAGTTTTAATTTTTATA [CACACA_negctrl_site497]	9.47 ± 0.11
TTAGAATTTAGAGAAGTGCATATTAAGTTACGAATT [GTGCAC_site9861]	10.06 ± 0.099
TTGCCTGACTTGTTCACACATATTTATGATATACAT [CACACA_site5783]	10.06 ± 0.021
TTTTCTTGGTATATGATTTATCCTAAATAAGTAAAT [CACACA_negctrl_site294]	9.89 ± 0.13
TTATTGGTTATATAAAGTACATTTGAAATATAATTG [XGTACX_site6553]	11.1 ± 0.79
ATAATAATTTTATGCACACAGAAAAATACAAGGTTA [CACACA_site3510]	10.3 ± 0.34
TGGGTGGTAAAAATGTGTACATAAAAAAATAATGTT [XGTACX_site2235]	11.6 ± 0.95
TCTCACATTCTTATGGGTACACATGAGAAATTATAA [XGTACX_site6799]	11.4 ± 0.93
ATATTATTATAAAGTGGTACAATAAATGGTATTATA [XGTACX_site391]	11.5 ± 0.96
TGTATTATAATATTATGTACTTATAAATTTTATATT [XGTACX_site6432]	11.3 ± 0.83
AATTTAAAGTTTTTTTTTTTTTTTTTTTTTTTTTTG [CACACA_negctrl_site1082]	9.545 ± 0.078
AAAAGGAATGAAAATTCACACAACTATAAATACATA [CACACA_site5337]	9.78 ± 0.14

Sequence	gcPBM binding intensity (ln)
GTTACACCAACAAACACACACACACCCACCCACAAA [CACACA_site2427]	10.4 ± 0.29
AATATACACCCGTGTACACAAATATTTACAAAACGT [CACACA_site4786]	11.7 ± 1.1
TTCTATTTGTAAAATTGTACAAAATAAATAACAAAA [XGTACX_site1007]	10.8 ± 0.51
TAATAATAGTACTCACATCAAAGTATTATTAAAAAT [TGCATGCA_negctrl_site496]	11.2 ± 0.98
GCATTTCTACTAAAAATACACACGATGATACAACGA [CACACA_site1756]	10.1 ± 0.32
GGGAAGTAGTAGTAATGTACTTATTTATTATGTGAC [XGTACX_site3985]	11.3 ± 0.83
TTATATATTTTTTGCACACCAAAAAAGAGAATATTC [CACACA_site2730]	10.4 ± 0.42
CTTATTTCCTTTTGTAGTACCTTATAATATATATAA [XGTACX_site8873]	11.3 ± 0.69
TATATATATATATGTTGTACATATTTAAATGTTTAT [XGTACX_site5437]	11.3 ± 0.93
ATATATATATATATGTGTACATAATAACTTTGCTTA [XGTACX_site1255]	11.5 ± 0.86
ACCTATTTCAAACACACACACACACTAGCAAACATA [CACACA_site4695]	10.2 ± 0.27
TATAAATATAAATACACACACATATATATTATATAT [CACACA_site4496]	9.875 ± 0.021
TAAAAAATGTTATATACACACAGTATAAAAAAAAAT [CACACA_site7808]	9.955 ± 0.092
AATTAAATTATAAGCACACACATATATATATATATA [CACACA_site3351]	10.1 ± 0.28
CCACGTATAATATGTACACACACATAAATACAAAAA [CACACA_site4660]	11.4 ± 0.9
ACACATATGACAAATAGTACATAAATATATAAATAT [XGTACX_site7141]	11.1 ± 0.88
TAAACAGATATATTTTGTACATATTGTATATTTTGT [XGTACX_site713]	10.6 ± 0.28
AATATTCACATTTGTTGTACATTCCTAGTTATATAA [XGTACX_site491]	11.2 ± 0.69
TAAATATATAATTGTAGTACTGTTTTATGTTCATAA [XGTACX_site1020]	11.2 ± 0.47
AAAAAATTTCAAATAACACACACTAATATATATATG [CACACA_site1426]	9.95 ± 0.11
ACAAAAAAGTAAAAAGTGCATGTAAAATATAAGTAT [GTGCAC_site9438]	10.2 ± 0.028
CGAAAGAAAAAAAGCACACACAGTTTTGAGCAATGA [CACACA_site2109]	9.935 ± 0.092
